Data published in PubChem BioAssay AID1963576 (National Center for Advancing Translational Sciences (NCATS), 2024).
Among all 46,000 compounds or so, about 60 (0.1%) were called active. Inconclusive results (about 3%) are left out. The call rests on the fitted dose curve; in most records, active means well fitted inhibition curve with a large enough effect; inconclusive means small, poorly fitted or top-dose-only effect; inactive means no such curve, though single readings can be large or run the other way. This is one part of the list.

assay: Primary qHTS assay for Inhibitors of ovarian cancer metastasis using an organotypic tumor microenvironment (TME) model.; further: nearly all actives have a fitted effect of over 65% in size;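 on activity change, negative = inhibition: plate controls were DMSO wells for no effect and tomatine positive control wells for full effect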; conditions: SKOV3ip1-GFP adhesion/invasion on 3D omental model, fluorescence; series mostly up to 45.8 µM; activity change, negative = inhibition: at the top concentration
Procedure, shortened: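 A 3D layer of primary human omental fibroblasts, mesothelial cells, fibronectin and collagen I, grown 48 hr, received SKOV3ip1-GFP cells in serum-free medium plus compounds at 0.36-46 umol/L. After 2 hr RT and 16 hr 37 C, fixed adherent GFP cells were counted; normalized to DMSO and tomatine.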

Activity change, negative = inhibition, inactive:
CCCOc1ccc(C(=O)Nc2ccc3nn(-c4ccc(OC)c(Cl)c4)nc3c2)cc1 1.91%
COc1ccc(N(CC(=O)NCCc2ccccc2)S(=O)(=O)c2ccc(OC)c(OC)c2)cc1 -19.6%
Nc1nonc1-c1nc2ccccc2n1Cc1c(Cl)cccc1Cl 5.96%
COc1ccc(CCNC(=O)c2ccc3nc(Cc4ccccc4)oc3c2)cc1OC -0.207%
COc1ccc(NC(=O)c2cnn(-c3ccc(F)cc3F)c2C2CCN(C(=O)OC(C)(C)C)CC2)cc1Cl 2.16%
CC1=C(c2ccc(C)cc2)S(=O)(=O)N(Cc2ccc(C(=O)Nc3ccccc3C)cc2)C1=O -3.98%
Cc1cc2ccccc2n1CCNC(=O)c1ccc(F)cc1 21.6%
Cc1cc(O)c(C(c2ccc(Cl)cc2)N2CCN(c3ccccc3)CC2)c(=O)n1Cc1ccco1 (stereo not given) 15.5%
Fc1ccc(-c2cn3cc(Cc4ccccc4Cl)sc3n2)cc1 -29.9%
COc1ccc(CCn2c(=O)[nH]c3cc(C(=O)N4CCN(c5ccccc5)CC4)ccc3c2=O)cc1OC -14.4%
COCCNC(=O)CCCN1C(=O)CCn2nc(-c3cccn3C)cc21 4.08%
CCOc1ccccc1NC(=O)n1ncc2cc(Cl)ccc21 -2.96%
O=C(c1ccccc1F)N1CCC(c2nc3c(nnn3Cc3cccc(F)c3)c(=O)[nH]2)CC1 -2.01%
Cc1oc(-c2ccc(C(=O)NC(C)c3ccccc3)cc2)nc1CS(=O)(=O)c1ccccc1 (stereo not given) -7.97%
Brc1ccc(-c2noc(-c3ccccc3)n2)o1 0.955%
CCOc1ccccc1NC(=O)CSc1ccc2nnc(CCNS(=O)(=O)c3ccccc3)n2n1 7.91%
COc1ccc(C)cc1NS(=O)(=O)c1c(C)nc2sc(C)cn2c1=O 18.5%
Cc1ccc(Nc2ncnc3c2cnn3-c2ccc(C)cc2)cc1 1.93%
COc1ccc(OCC(=O)N(Cc2cccc(OC)c2)C2CCS(=O)(=O)C2)cc1 (stereo not given) -11.3%
COc1cc(OC)c(NC(=O)c2cc(C(C)=O)n3ccccc23)cc1Cl -4.11%
CCOc1ccc(NS(=O)(=O)c2ccc3[nH]cc(C(=O)NCCOC)c(=O)c3c2)cc1 14.2%
CN(C)CCN(Cc1ccccc1)S(=O)(=O)c1ccc(-c2cc(C(F)(F)F)on2)s1 -18.6%
COc1ccccc1NC(=O)C1=C(C)Nc2nc(SCC(=O)c3ccc(C)cc3)nn2C1c1ccccc1C (stereo not given) -1.55%
COc1ccc(-n2cc(C(=O)N(C)c3cc(C)ccc3OC)c3ccccc3c2=O)cc1 8.65%
COc1ccc(NC(=O)c2sc3nc(C)c(C(=O)Nc4ccc(C)cc4C)c(-c4ccccc4Cl)c3c2N)cc1 3.76%
CCC(=O)N1CCc2cc(CNS(=O)(=O)c3c(C)cc(C)cc3C)ccc21 -3.29%
Cc1ccc(Cn2nnc3sc4c(c3c2=O)CCC(C)C4)cc1 (stereo not given) -6.47%
O=C(Cn1nc(-c2ccccc2)c2cnc3ccccc3c21)Nc1ccccc1 0.314%
Cc1ccc(C)c(NC(=O)CN2C(=O)C3(SCC(=O)N3c3ccc(C)c(C)c3)c3ccccc32)c1 (stereo not given) -19.6%
COC(=O)c1ccccc1NC(=O)c1cc(-c2ccc(Cl)cc2)on1 3.13%
CCCCOc1ccc(C(=O)Nc2ccc(S(=O)(=O)Nc3nc(C)cc(C)n3)cc2)cc1 7.29%
Cc1nnc(NCc2ccc(Cl)cc2)c2c1nnn2Cc1ccc(F)cc1 2.77%
CCc1ccc2ncc(S(=O)(=O)c3ccc(Cl)cc3)c(N3CCN(CC)CC3)c2c1 -1.12%
Cc1nc2ccccc2n1CCc1nc2c3ccccc3nc(SCC(=O)Nc3cccc(C(F)(F)F)c3)n2n1 7.46%
Cc1ccccc1NC(=O)CSc1nc(-c2ccc(F)cc2)nc2c1Cc1ccccc1O2 3.01%
O=C(CCC1N=C2c3ccccc3N=C(SCc3ccccc3Cl)N2C1=O)NCCc1ccccc1 (stereo not given) 4.05%
Cc1cc(C)cc(-n2c(SCC(=O)N3CCCC3)nc3c([nH]c4ccccc43)c2=O)c1 -4.3%
COc1ccc2c(Sc3ccccc3)c(C(=O)NCC(C)c3ccccc3)[nH]c2c1 (stereo not given) 4.46%
CCCCOc1ccc(C(=O)N2CC(=O)Nc3ccc(Br)cc3C2c2ccc(F)cc2)cc1 (stereo not given) 3.88%
COc1ccc(Br)cc1Cn1nnc(C(=O)Nc2ccc(C)cc2C)c1N -17.5%
Cc1cc(C)nc(NS(=O)(=O)c2ccc(NC(=O)c3ccccc3O)cc2)n1 9.62%
CCOc1ccc(N2CC(c3nc4ccccc4n3CCCOc3ccccc3OC)CC2=O)cc1 (stereo not given) -29.8%
CCc1nnc(SCc2cccc(F)c2)c2cc3sc(C)cc3n12 7.21%
COc1cc(OC)c(NC(=O)C(c2ccccc2)N2Cc3ccccc3C2=O)cc1Cl (stereo not given) -14%
COc1ccc(NC(=O)C2CCN(S(=O)(=O)c3ccc4[nH]c(=O)ccc4c3)CC2)cc1Cl 22%
COc1ccc(N2CC(NC(=O)/C=C\c3ccc4c(c3)OCO4)CC2=O)cc1 (stereo not given) -7.9%
O=C(Nc1nonc1-c1ccc(Cl)cc1)c1ccccc1F 22.3%
CCOC(=O)c1scc(-c2ccccc2)c1S(=O)(=O)Nc1ccc(N(C)C)cc1 -6.94%
CC(C)CN(CCCNC(=O)c1cc(-c2ccc(Br)s2)nc2ccccc12)CC(C)C -27.7%
COc1cccc(-c2nc(CS(=O)(=O)CC(=O)NCCc3ccc(OC)cc3OC)c(C)o2)c1 -5.26%
CCCC(CCC)C(=O)Nc1cccc(-c2nc3cccnc3s2)c1C -5.77%
Cc1cccc(CCNC(=O)C2CCC(CNS(=O)(=O)c3ccccc3)CC2)c1 (stereo not given) -8.87%
O=c1c(O)c(-c2ccc(O)c(O)c2)oc2cc(O)ccc12 -4.57%
CCOc1cc(C(=O)Nc2ccc3nc(Nc4cccc(Cl)c4)cc(C)c3c2)cc(OCC)c1OCC 72.8%
CCCCCCNc1nc2c(c(=O)n(C)c(=O)n2C)n1Cc1cccc(C)c1 1.31%
COCCCNC(=O)c1ccc(Cn2c(=O)c3ccccc3n(CC(=O)Nc3c(C)cccc3C)c2=O)cc1 9.54%
Cc1nnc(SCc2cc(=O)n3cccc(C)c3n2)s1 0.0576%
COc1ccc(Cl)cc1NC(=O)CSC1=Nc2ccccc2C2=NC(CCC(=O)NCc3ccc(F)cc3)C(=O)N12 (stereo not given) 6.87%
CCOC(=O)c1ccc(NC(=O)c2cnn(-c3ccc(C)cc3C)c2C2CCN(C(=O)OC(C)(C)C)CC2)cc1 11.3%
O=C(NCc1ccccc1Cl)C1CCN(S(=O)(=O)Cc2ccccc2)CC1 8.27%
CNS(=O)(=O)Cc1ccc2[nH]cc(CCN(C)C)c2c1 6.25%
N#Cc1ccccc1Cn1c(=O)n(CCCC(=O)NCc2ccccc2Cl)c(=O)c2ccccc21 1.45%
O=C(Nc1ccc(F)c(Cl)c1)C1CCN(C(=O)c2ccc(F)cc2)CC1 -6.64%
COc1ccc(OC)c(C2Nc3c(C)cc(C)cc3-c3cc(C)nn32)c1 (stereo not given) -7.15%
Cc1ccc(NS(=O)(=O)c2ccc3c(c2)CC(=O)N3)cc1Cl 1.56%
CCc1c(C)sc2c1CCN(C(=O)Nc1ccccc1C(=O)OC)C2c1ccc(OC)cc1 (stereo not given) 5.63%
CCOc1ccc(Br)cc1C1C(C(=O)OC)=C(C)NC2=C1C(=O)c1ccccc12 (stereo not given) -5.47%
Cc1ccc(-c2cc3ncc(C(=O)c4cc(Cl)c(C)cc4O)cn3n2)cc1 -5.67%
Cc1ccc(Cl)cc1NC(=O)C(Cc1ccccc1)NS(=O)(=O)c1cccc2nsnc12 (stereo not given) 0.162%
COc1ccc(C)cc1NC(=O)c1c2c(nc3ccccc13)C(=O)N(C1CCCCC1)C2 -8.09%
CC(C)c1ccc(C2=CC(c3cccc(Cl)c3)n3c(nc4ccccc43)N2)cc1 (stereo not given) -9.62%
CCC(=O)N1CCc2cc(Br)cc(S(=O)(=O)N3CCCC(C(=O)Nc4cc(C)ccc4OC)C3)c21 (stereo not given) 33.9%
CCOc1ccc(NC(=O)CN2C(=O)C(c3ccc(Cl)cc3)=NC2(C)C)cc1 -4.16%
O=C(NCc1ccc(Cl)cc1)C1=Cc2cc(Br)ccc2OC1 1.6%
CCn1c(=O)cc(OCC(=O)N(C)c2ccc(OC)cc2)c2ccccc21 4.92%
CCCc1ccc(S(=O)(=O)N2CCC(c3nnc(-c4cccc(C)c4)o3)CC2)cc1 -8.01%
COc1ccc(Cl)cc1C(=O)Nc1ccc2nc(Nc3cccc(Cl)c3)cc(C)c2c1 8.48%
COc1ccc(OC)c(CNC(=O)c2ccc3nc(C(C)C)oc3c2)c1 -15%

outcome, inactive:
O=C(C1CCCN(S(=O)(=O)c2cccc3nonc23)C1)N1CCN(c2ccccc2Cl)CC1 (stereo not given)
CCN1C(=O)C2(c3ccccc31)c1c(oc3ccc(C)cc3c1=O)C(=O)N2CCCOC(C)C (stereo not given)
Cc1ccc(CCNC(=O)c2ccc(CS(=O)(=O)c3ccc(Cl)cc3)o2)cc1
COC(=O)c1ccccc1NC(=O)CCCN1C(=O)C(c2ccccc2)Oc2cccnc21 (stereo not given)
COc1ccc(NC(=O)Cn2c(=O)oc3cc(S(=O)(=O)N4CCCCC4C)ccc32)cc1 (stereo not given)
COCCNC(=O)CCCn1c(=O)[nH]c2ccsc2c1=O
CN(C)CCNC(=O)CCCn1c(=O)c2cccn2c2ccccc21
CSCCC(NS(=O)(=O)c1ccc2c(c1)oc(=O)n2C)C(=O)NCc1ccc(F)cc1 (stereo not given)
Cc1nn(Cc2noc(C(=O)NCc3cccc(F)c3)n2)c(C)c1Br
Cc1ccc(Cl)cc1N(C)C(=O)c1noc2c1CCCCC2
CC1=C(C(=O)Nc2cccnc2)C(c2ccccc2)n2nc(SCc3ccccc3)nc2N1 (stereo not given)
Cc1ccc2nc(-c3ccc(Cl)c(NC(=O)c4ccc5c(c4)OCCO5)c3)oc2c1
Cn1c(=O)n(-c2ccc3c(c2)OCO3)c2nc(-c3ccc(Cl)cc3)nc(C(N)=O)c21
CCS(=O)(=O)N1CC(=O)N(c2ccc(Cl)cc2C)C(C)(C(=O)NC2CCCCCC2)C1 (stereo not given)
COc1ccc(CCNC(=O)C2(c3cccs3)CCOCC2)cc1
Cc1nc2ccn(Cc3ccco3)c(=O)c2cc1C(=O)NCc1ccccc1F
CCN(C(=O)CSc1ncc2c(n1)-c1cc(Cl)ccc1N(Cc1ccccc1)S2(=O)=O)c1cccc(C)c1
